# Assay results as given in the supplement of paper PMC8728848.
# The list shows a part of the results.
# Legend:
# Experiment in all cases: glycan array binding signal (z-score within array); higher = stronger binding
# Conditions in all cases: glycan notation: IUPAC condensed, linker removed
# [1] = target: Fuc(a1-3)[Gal(b1-4)]Glc6S
# Method in brief: (§1)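 From the Consortium for Functional Glycomics database, 3228 arrays were curated, keeping only those whose protein sequence was available. Binding is given as a within-array Z-score averaged across arrays sharing a protein sequence and across linkers. Negative Z-scores can be read as non-binding.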
# [2] = target: Fuc(a1-3)[Gal(b1-4)]GlcNAc
# Method in brief: as §1
# [3] = target: Fuc(a1-3)[Gal(b1-4)]GlcNAc(b1-2)Man
# Method in brief: as §1
# [4] = target: Fuc(a1-3)[Gal(b1-4)]GlcNAc(b1-2)Man(a1-3)[Fuc(a1-3)[Gal(b1-4)]GlcNAc(b1-2)Man(a1-6)]Man(b1-4)GlcNAc(b1-4)GlcNAc
# Method in brief: as §1
# [5] = target: Fuc(a1-3)[Gal(b1-4)]GlcNAc(b1-2)Man(a1-3)[Fuc(a1-3)[Gal(b1-4)]GlcNAc(b1-2)Man(a1-6)]Man(b1-4)GlcNAc(b1-4)[Fuc(a1-6)]GlcNAc
# Method in brief: as §1
# [6] = target: Fuc(a1-3)[Gal(b1-4)]GlcNAc(b1-2)Man(a1-6)[Gal(b1-4)GlcNAc(b1-2)Man(a1-3)]Man(b1-4)GlcNAc(b1-4)GlcNAc
# Method in brief: as §1
# [7] = target: Fuc(a1-3)[Gal(b1-4)]GlcNAc(b1-3)Gal(b1-3)[Fuc(a1-4)]GlcNAc
# Method in brief: as §1
# [8] = target: Fuc(a1-3)[Gal(b1-4)]GlcNAc(b1-3)Gal(b1-4)[Fuc(a1-3)]GlcNAc
# Method in brief: as §1
# [9] = target: Fuc(a1-3)[Gal(b1-4)]GlcNAc(b1-3)Gal(b1-4)[Fuc(a1-3)]GlcNAc(b1-3)Gal(b1-4)[Fuc(a1-3)]GlcNAc
# Method in brief: as §1
# [10] = target: Fuc(a1-3)[Gal(b1-4)]GlcNAc(b1-3)GalNAc
# Method in brief: as §1
# [11] = target: Fuc(a1-3)[Gal(b1-4)]GlcNAc(b1-4)Gal(b1-4)[Fuc(a1-3)]GlcNAc
# Method in brief: as §1
# [12] = target: Fuc(a1-3)[Gal(b1-4)]GlcNAc(b1-4)Gal(b1-4)[Fuc(a1-3)]GlcNAc(b1-4)Gal(b1-4)[Fuc(a1-3)]GlcNAc
# Method in brief: as §1
# [13] = target: Fuc(a1-3)[Gal(b1-4)]GlcNAc(b1-6)GalNAc
# Method in brief: as §1
# [14] = target: Fuc(a1-3)[Gal(b1-4)]GlcNAc(b1-6)[Gal(b1-3)GlcNAc(b1-3)]Gal(b1-4)Glc
# Method in brief: as §1
# [15] = target: Fuc(a1-3)[Gal(b1-4)]GlcNAc6S
# Method in brief: as §1
# [16] = target: Fuc(a1-3)[Gal3S(b1-4)]Glc
# Method in brief: as §1
# [17] = target: Fuc(a1-3)[Gal3S(b1-4)]Glc6S
# Method in brief: as §1
# [18] = target: Fuc(a1-3)[Gal3S(b1-4)]GlcNAc
# Method in brief: as §1
# [19] = target: Fuc(a1-3)[Gal3S(b1-4)]GlcNAc6S
# Method in brief: as §1
# [20] = target: Fuc(a1-3)[GalNAc(b1-4)]GlcNAc
# Method in brief: as §1
# [21] = target: Fuc(a1-3)[GalNAc(b1-4)]GlcNAc6S
# Method in brief: as §1
# Fuc(a1-4)GlcNAc = target: Fuc(a1-4)GlcNAc
# Method in brief: as §1
# Fuc(b1-3)GlcNAc = target: Fuc(b1-3)GlcNAc
# Method in brief: as §1
# Gal(a1-2)Gal = target: Gal(a1-2)Gal
# Method in brief: as §1
# Gal(a1-3)Gal = target: Gal(a1-3)Gal
# Method in brief: as §1
# Gal(a1-3)Gal(b1-3)GlcNAc = target: Gal(a1-3)Gal(b1-3)GlcNAc
# Method in brief: as §1
# [22] = target: Gal(a1-3)Gal(b1-3)GlcNAc(b1-2)Man
# Method in brief: as §1
# [23] = target: Gal(a1-3)Gal(b1-3)GlcNAc(b1-2)Man(a1-3)[Gal(a1-3)Gal(b1-3)GlcNAc(b1-2)Man(a1-6)]Man(b1-4)GlcNAc(b1-4)GlcNAc
# Method in brief: as §1
# [24] = target: Gal(a1-3)Gal(b1-3)GlcNAc(b1-3)GalNAc
# Method in brief: as §1
# [25] = target: Gal(a1-3)Gal(b1-3)GlcNAc(b1-6)GalNAc
# Method in brief: as §1
# [26] = target: Gal(a1-3)Gal(b1-3)[Fuc(a1-4)]GlcNAc(b1-2)Man(a1-3)[Gal(a1-3)Gal(b1-3)[Fuc(a1-4)]GlcNAc(b1-2)Man(a1-6)]Man(b1-4)GlcNAc(b1-4)GlcNAc
# Method in brief: as §1
# Gal(a1-3)Gal(b1-4)Glc = target: Gal(a1-3)Gal(b1-4)Glc
# Method in brief: as §1
# Gal(a1-3)Gal(b1-4)GlcNAc = target: Gal(a1-3)Gal(b1-4)GlcNAc
# Method in brief: as §1
# [27] = target: Gal(a1-3)Gal(b1-4)GlcNAc(b1-2)Man
# Method in brief: as §1
# [28] = target: Gal(a1-3)Gal(b1-4)GlcNAc(b1-2)Man(a1-3)[Gal(a1-3)Gal(b1-4)GlcNAc(b1-2)Man(a1-6)]Man(b1-4)GlcNAc(b1-4)GlcNAc
# Method in brief: as §1
# [29] = target: Gal(a1-3)Gal(b1-4)GlcNAc(b1-3)GalNAc
# Method in brief: as §1
# [30] = target: Gal(a1-3)Gal(b1-4)GlcNAc(b1-6)GalNAc
# Method in brief: as §1
# [31] = target: Gal(a1-3)Gal(b1-4)[Fuc(a1-3)]GlcNAc
# Method in brief: as §1
binder,measurement,setting,value
"LSECtin (Homo sapiens), Q6UXB4 (protein) MDTTRYSKWGGSSEEVPGGPWGRWVHWSRRPLFLALAVLVTTVLWAVILSILLSKASTERAALLDGHDLLRTNASKQTAALGALKEEVGDCHSCCSGTQAQLQTTRAELGEAQAKLMEQESALRELRERVTQGLAEAGRGREDVRTELFRALEAVRLQNNSCEPCPTSWLSFEGSCYFFSVPKTTWAAAQDHCADASAHLVIVGGLDEQGFLTRNTRGRGYWLGLRAVRHLGKVQGYQWVDGVSLSFSHWNQGEPNDAWGRENCVMMLHTGLWNDAPCDSEKDGWICEKRHNC",glycan array binding signal (z-score),[1],-0.078
same,glycan array binding signal (z-score),[2],-0.162
same,glycan array binding signal (z-score),[3],-0.136
same,glycan array binding signal (z-score),[4],0.514
same,glycan array binding signal (z-score),[5],-0.124
same,glycan array binding signal (z-score),[6],-0.477
same,glycan array binding signal (z-score),[7],0.018
same,glycan array binding signal (z-score),[8],-0.128
same,glycan array binding signal (z-score),[9],-0.135
same,glycan array binding signal (z-score),[10],-0.128
same,glycan array binding signal (z-score),[11],-0.072
same,glycan array binding signal (z-score),[12],0.161
same,glycan array binding signal (z-score),[13],-0.13
same,glycan array binding signal (z-score),[14],-0.137
same,glycan array binding signal (z-score),[15],-0.07
same,glycan array binding signal (z-score),[16],-0.136
same,glycan array binding signal (z-score),[17],4.05
same,glycan array binding signal (z-score),[18],0.669
same,glycan array binding signal (z-score),[19],-0.128
same,glycan array binding signal (z-score),[20],-0.152
same,glycan array binding signal (z-score),[21],-0.139
same,glycan array binding signal (z-score),Fuc(a1-4)GlcNAc,-0.206
same,glycan array binding signal (z-score),Fuc(b1-3)GlcNAc,-0.212
same,glycan array binding signal (z-score),Gal(a1-2)Gal,-0.213
same,glycan array binding signal (z-score),Gal(a1-3)Gal,-0.169
same,glycan array binding signal (z-score),Gal(a1-3)Gal(b1-3)GlcNAc,-0.228
same,glycan array binding signal (z-score),[22],-0.124
same,glycan array binding signal (z-score),[23],-0.124
same,glycan array binding signal (z-score),[24],-0.128
same,glycan array binding signal (z-score),[25],-0.136
same,glycan array binding signal (z-score),[26],-0.126
same,glycan array binding signal (z-score),Gal(a1-3)Gal(b1-4)Glc,-0.176
same,glycan array binding signal (z-score),Gal(a1-3)Gal(b1-4)GlcNAc,-0.208
same,glycan array binding signal (z-score),[27],-0.141
same,glycan array binding signal (z-score),[28],-0.131
same,glycan array binding signal (z-score),[29],-0.137
same,glycan array binding signal (z-score),[30],-0.136
same,glycan array binding signal (z-score),[31],-0.219
